Measurements: PubChem BioAssay (NCATS)
The inconclusive results got no clear call from the source; some entries with a clear call stand among them for comparison. Where the call is inconclusive, the potency comes from a doubtful curve fit. Calls of active or inactive are those of the source. Calls follow the shape of the dose curve; as a rule, active = well fitted curve in the direction sought with a large enough effect; inconclusive = small, poorly fitted or top-dose-only effect, or another doubt; inactive = no such curve, though single readings can be large; an effect the other way counts as inactive or inconclusive.

How the values were obtained:
[1] = Viability qHTS for spleen associated tyrosine kinase inhibitor (SYKi) naive MV4-11 cells (AID 1963823); conditions: MV4-11 AML viability, CellTiter-Glo luminescence, 72 h; viability (% of control): at 45 µM (top of the series); also: nearly all actives have a fitted effect of over 40% in size
Summary of the method: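 Viability of MV4-11 AML cells lacking prior SYK inhibitor exposure is scored by CellTiter-Glo luminescence following 72 hr compound incubation at 37 C, 5% CO2, seeded at 500 cells per well.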

[2] = Viability qHTS for spleen associated tyrosine kinase inhibitor (SYKi) drug resistant MV4-11 cells (AID 1963824); also: nearly all actives have a fitted effect of over 35% in size
Summary of the method: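 SYK-inhibitor-resistant MV4-11 AML cells were seeded at 500 per well onto compound and cultured 72 hours (37 °C, 5% CO2). CellTiter-Glo was then added, and after 10 min at room temperature, luminescence gave viability.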

[3] = Cellular viability qHTS for adrenocortical cancer (ACC) cell line SW-13 (AID 1963989); conditions: SW-13 ACC cells viability, CellTiter-Glo, 48 h; activity (max response): stronger effect = lower value; also: nearly all actives have a fitted effect of over 65% in size;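 as to activity (max response): cells grown in serum-free medium with ITS supplement; % is scaled to controls: 0 for no effect and ±100 for the full control effect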
Summary of the method: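 48 h treatment, SW-13 in ITS/DMEM serum-free; doses up to 46 uM; readout CellTiter-Glo luminescence; curve fit four-parameter logistic.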

[4] = Cellular viability qHTS for adrenocortical cancer (ACC) cell line NCI-H295R (AID 1963990); conditions: CellTiter-Glo ATP luminescence, 48 h; activity change, negative = viability loss: at 46.1 µM (top of the series); also: nearly all actives have a fitted effect of over 60% in size;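 as to activity change, negative = viability loss: 0% = DMSO only wells and -100% = full killing with cytotoxic reference compound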
Summary of the method: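 Compound titrations (up to 46 uM final) are applied to NCI-H295R cultures for 48 h at 37C. Viable cell number is estimated by CellTiter-Glo signal, normalised to DMSO and doxorubicin controls.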
Potency is read from the fitted curve at half-maximal effect; tags tell the direction and shape of the fitted curve.

SMILES | Potency [1] | Potency [2] | Potency [3] | Potency [4] | activity (max response) [3]
Cc1cc(CC(=O)O)n(C)c1C(=O)c1ccc(Cl)cc1 | inactive | inconclusive: 4.73 µM [cytotoxic, partial curve, poor fit] | inconclusive: 23.1 µM [cytotoxic, single point] | inconclusive: 29.1 µM [cytotoxic, single point] | 
COc1ccc2c(c1)C(c1ccc(F)cc1)=C(CN1CCCC1)CO2 | inconclusive: 37.2 µM [cytotoxic, partial curve, poor fit] | active: 20.9 µM | inconclusive: 35.5 µM [cytotoxic, single point] | inconclusive: 35.5 µM [cytotoxic, single point] | 
c1ccc(C(O[C@H]2CCCN(CCc3ccc4c(c3)OCO4)C2)c2ccccc2)cc1 | inconclusive: 0.015 µM [rising, full curve, poor fit] | inconclusive: 33.5 µM [cytotoxic, single point] | inconclusive: 23.1 µM [cytotoxic, single point] | inconclusive: 29.1 µM [cytotoxic, single point] | 
Nc1ccc(N=Nc2ccccc2)c(N)n1 | inconclusive: 33.5 µM [cytotoxic, single point] | inconclusive: 16.8 µM [cytotoxic, single point] |  | inactive | inactive: -2.95%
Cc1ccc2c(c1)c1c3n2CCNC3CCC1 (stereo not given) | inconclusive: 33.5 µM [cytotoxic, single point] | inconclusive: 21.1 µM [cytotoxic, single point] |  | inconclusive: 20.6 µM [cytotoxic, single point] | inactive: -5.85%
